In the supplement of paper PMC3334620:
The full ranking holds about 33,000 sequences; the median of “E-score (-0.5 to 0.5)” is about -0.036, and the highest 2% start at about 0.37. The list shows a part of the results.

Each sequence was assayed against T1, Yer064c (UniProt P40041) (assay: PBM E-score (8-mer binding enrichment) (E-score (-0.5 to 0.5)); higher = stronger / more preferred TF binding; most listed sequences are background and not binding sites). Settings: protein concentration: 200 nM; construct: GST-full length.
T1 sequence: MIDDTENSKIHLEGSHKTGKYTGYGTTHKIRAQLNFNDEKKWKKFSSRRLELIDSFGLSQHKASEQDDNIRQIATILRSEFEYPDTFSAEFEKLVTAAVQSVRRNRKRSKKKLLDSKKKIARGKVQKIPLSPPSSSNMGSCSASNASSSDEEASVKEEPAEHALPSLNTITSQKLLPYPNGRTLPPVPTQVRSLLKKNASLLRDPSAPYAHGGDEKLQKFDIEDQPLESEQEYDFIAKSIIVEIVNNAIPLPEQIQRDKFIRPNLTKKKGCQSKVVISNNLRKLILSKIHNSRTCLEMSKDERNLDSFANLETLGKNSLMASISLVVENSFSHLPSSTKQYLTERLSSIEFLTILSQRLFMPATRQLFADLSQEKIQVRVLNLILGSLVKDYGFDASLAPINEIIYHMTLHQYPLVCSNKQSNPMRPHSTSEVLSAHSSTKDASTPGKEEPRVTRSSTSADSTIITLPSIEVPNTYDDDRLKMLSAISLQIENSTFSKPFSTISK
Procedure, shortened: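 Each ungapped eight-base word and its reverse complement, pooled, received an E-score from the Universal PBM Analysis Suite. Underlying scans, normalised with masliner, recorded fluorescent anti-GST bound to GST-tagged yeast transcription factors. These were applied at about 100-200 nM to universal all-10-mer Agilent arrays double-stranded by primer extension.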
CGGACCTA was tested, and the “PBM E-score” value was -0.189. With GGGTCCAA the “PBM E-score” value was 0.00332. With GGATGGAA the “PBM E-score” value was -0.278. With AATGGCCT the “PBM E-score” value was -0.324. For ACAGCGTC, the “PBM E-score” value was 0.0799. CACTGGAG was tested, and the “PBM E-score” value was -0.158. In the case of AGGAGCCT, the “PBM E-score” value is reported as -0.34. For ATCAGCAG, the “PBM E-score” value was 0.0714. In the case of CGGACGCC, the “PBM E-score” value is reported as -0.192. In the case of ACATCCGG, the “PBM E-score” value is reported as -0.118. With GCTTGGGA the “PBM E-score” value was -0.125. For GGTTCGCA, the “PBM E-score” value was -0.1. In the case of CTGGCTTA, the “PBM E-score” value is reported as -0.0807. With AATTTTAA the “PBM E-score” value was 0.0277. In the case of ATTAAATG, the “PBM E-score” value is reported as 0.156. With AATGAGTA the “PBM E-score” value was 0.389. With GCGGTGCA the “PBM E-score” value was -0.182. With ATAGCCAA the “PBM E-score” value was 0.0259. With GGTAAAGA the “PBM E-score” value was -0.00478. CTGTACCC was tested, and the “PBM E-score” value was -0.0155. CGTCTGAA was tested, and the “PBM E-score” value was 0.0534. With ACCTTCCG the “PBM E-score” value was -0.124. AAATGCCC was tested, and the “PBM E-score” value was -0.188. ACGATTTG was tested, and the “PBM E-score” value was 0.152. With CTATTAGC the “PBM E-score” value was 0.123. In the case of AACTGGGT, the “PBM E-score” value is reported as -0.0453. ATCATTTC was tested, and the “PBM E-score” value was 0.289. For ATACAACG, the “PBM E-score” value was -0.0924. With AGTACAAG the “PBM E-score” value was 0.0542. For AACACCAA, the “PBM E-score” value was -0.0476. In the case of ACAGCACG, the “PBM E-score” value is reported as 0.064. In the case of CGCGTCGA, the “PBM E-score” value is reported as -0.0197. With AAAGGCAC the “PBM E-score” value was -0.285. For ACTACTCA, the “PBM E-score” value was 0.344. ACGTACGT was tested, and the “PBM E-score” value was -0.0674. For CTAAAACC, the “PBM E-score” value was -0.0517. CGGCCTAG was tested, and the “PBM E-score” value was -0.147. In the case of ACCGAGCG, the “PBM E-score” value is reported as -0.138. ACATACGA was tested, and the “PBM E-score” value was 0.148. For ATTAAAGA, the “PBM E-score” value was 0.195. In the case of ATGTTTGC, the “PBM E-score” value is reported as -0.249. TCGTTCCA was tested, and the “PBM E-score” value was -0.108. For AGTACTGG, the “PBM E-score” value was 0.0972. With ACATCGTA the “PBM E-score” value was 0.0891. For GTGATGGA, the “PBM E-score” value was 0.113. For TCCGTGCA, the “PBM E-score” value was 0.023. TAGTCCAA was tested, and the “PBM E-score” value was 0.219. For AGGCCTGG, the “PBM E-score” value was -0.23. With ACACAGCG the “PBM E-score” value was 0.0981. CGTTCCAC was tested, and the “PBM E-score” value was -0.25. For CAACCTTA, the “PBM E-score” value was -0.0758. With ATAGACTC the “PBM E-score” value was 0.304. For CAGACTAC, the “PBM E-score” value was 0.215. With CTTAATTA the “PBM E-score” value was 0.173. CAAGCCAA was tested, and the “PBM E-score” value was 0.026. In the case of GAGTAGCA, the “PBM E-score” value is reported as 0.0271. With ACTCACCT the “PBM E-score” value was 0.338. For AAAGAGCA, the “PBM E-score” value was -0.0916. ACAGAGTC was tested, and the “PBM E-score” value was 0.37. For GTTACCAA, the “PBM E-score” value was 0.0378. In the case of CGGGACAG, the “PBM E-score” value is reported as -0.136. AGCGCCAA was tested, and the “PBM E-score” value was -0.105. In the case of GTTGCTCA, the “PBM E-score” value is reported as 0.0437. For GAGTTTCC, the “PBM E-score” value was -0.122. With CCGAGAGA the “PBM E-score” value was -0.0688. With CGGACAGC the “PBM E-score” value was -0.187. In the case of AGTTATAT, the “PBM E-score” value is reported as 0.0648. With AACTCATA the “PBM E-score” value was 0.275. With ACGCGCGA the “PBM E-score” value was -0.0257. GTACGAAA was tested, and the “PBM E-score” value was 0.0773. In the case of ACTCTAGG, the “PBM E-score” value is reported as 0.0145. GAACTATA was tested, and the “PBM E-score” value was -0.0145. In the case of AGGGCCTG, the “PBM E-score” value is reported as -0.22. In the case of ATTGCCTG, the “PBM E-score” value is reported as 0.0794. In the case of GAACATTA, the “PBM E-score” value is reported as -0.197. AACTGATG was tested, and the “PBM E-score” value was 0.11. In the case of CACGGATG, the “PBM E-score” value is reported as 0.113. CCATCACA was tested, and the “PBM E-score” value was -0.108. For AAGCGCCC, the “PBM E-score” value was -0.248. For AAAGGGTA, the “PBM E-score” value was -0.137. In the case of CAAGGGGA, the “PBM E-score” value is reported as 0.0449. With TCAAATCA the “PBM E-score” value was 0.278. In the case of CGAGTCTA, the “PBM E-score” value is reported as 0.132. For AAAAACCT, the “PBM E-score” value was 0.111. With CTGCCCGA the “PBM E-score” value was -0.0647. AGCAACCA was tested, and the “PBM E-score” value was 0.103. CGGTGACC was tested, and the “PBM E-score” value was 0.0215. With AAATCGGC the “PBM E-score” value was -0.314. In the case of AGTATTAG, the “PBM E-score” value is reported as 0.0843. In the case of CAATGTCC, the “PBM E-score” value is reported as -0.146. ATCAGCCC was tested, and the “PBM E-score” value was 0.126. In the case of CCATATTC, the “PBM E-score” value is reported as -0.159. ACCTTCGG was tested, and the “PBM E-score” value was 0.0198. With CTCGGCGA the “PBM E-score” value was 0.0368. AAAGGAAA was tested, and the “PBM E-score” value was -0.0945. For ATGTAACA, the “PBM E-score” value was 0.0112. GTGTTTCA was tested, and the “PBM E-score” value was 0.0559. For AGGAAGGC, the “PBM E-score” value was -0.154. With GCTATAAC the “PBM E-score” value was -0.101. GCCTGAAC was tested, and the “PBM E-score” value was -0.144. For CTTCAGAA, the “PBM E-score” value was -0.124. In the case of CCCCACCC, the “PBM E-score” value is reported as -0.0582. For CCCTACGC, the “PBM E-score” value was -0.129. With GGGCCACC the “PBM E-score” value was -0.00262. AAATCTAA was tested, and the “PBM E-score” value was 0.0628. AGTTTTGA was tested, and the “PBM E-score” value was 0.19. For ACTCCAAC, the “PBM E-score” value was 0.0152. In the case of GCAGCAAA, the “PBM E-score” value is reported as -0.244. For GATCCTCC, the “PBM E-score” value was -0.265.
